We go through one molecule from patent US20220153844A1 (INVENRA, published 2022).

For this test, the target named is T1, mouse CD86 ligand (mouse, UniProt P42082 24-244, limits assumed).
T1 sequence (looked up): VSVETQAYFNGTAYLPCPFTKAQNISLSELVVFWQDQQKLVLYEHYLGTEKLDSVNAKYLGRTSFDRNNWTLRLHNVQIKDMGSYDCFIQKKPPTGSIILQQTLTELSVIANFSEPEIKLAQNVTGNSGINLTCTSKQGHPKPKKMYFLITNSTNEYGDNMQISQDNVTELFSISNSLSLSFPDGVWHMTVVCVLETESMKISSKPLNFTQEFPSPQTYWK
Briefly: BLI, biotinylated mouse CTLA4 (B-mTarget2) on streptavidin sensor, then antibody or CD86 ligand. In general terms: In BLI a coated tip is dipped into the sample, and binding shifts an interference pattern.

B1: mouse CTLA4 (target of muSNIPER and anti-muCTLA4) (receptor)
chain: not shown
modifications: biotinylated in the blocking assay
notes: also called Target 2
For B1, the binding result is “binds”.
